The record followed here is the RNAGym collection of RNA variant scans (doi:10.7554/elife.90254).

The source gives no read counts; variants with many changes may rest on few reads.

B1: OR4K15 (parent)
chain: GUUAACGGUCAUAGGCCAUGGAAACUAGGAGCACCAUUUCGCUGCCAGUGAAGAAAUGAACAAAGAAAAUCUGGGCCAGGCAGGCAUCAAAAGAAAUAGUCUUGCGCUCAACCAGAAAGUCUGUAAUCAUUUUAAGGGUA

In this data set the parent is B1. As to the kind of experiment: self-cleavage, relative activity (ratio to wild type); higher = more cleavage; in vitro, sequencing; the parent is a self-cleaving ribozyme.
A23G G74U A110G: the self-cleavage worked out at 0.04.

Turning to A23G U37C U43C A54G A64G A82U, the self-cleavage was found to be 0.19.

On to A24C A51U A111G, for which the self-cleavage worked out at 0.03.

Regarding A23G A64G A114G, the self-cleavage is 0.46.

As to A23G A62G A69G A86G, the self-cleavage turned out to be 1.15.

As for A23G A64U A114U, the self-cleavage stood at 0.07.

A23G A59G U122A: the self-cleavage turned out to be 0.65.

As to A23G A63G U70C A92G, the self-cleavage amounted to 0.12.

For A23G U43C A90G, the self-cleavage was found to be 0.85.

For A23G A30G A78U U102C U103G, the self-cleavage came to 0.1.

As for A24C A36U A60G A116G U122C C128A, the self-cleavage is 0.49.

With A23G A92G A116U, the self-cleavage was 0.46.

On to A24C U87C U122C, for which the self-cleavage was 1.78.

Consider A23G A55G A69G, for which the self-cleavage was found to be 1.1.

Regarding A24G A47G A54U U102A A126G, the self-cleavage was found to be 0.01.

For the variant A23G A78U C105A, the self-cleavage came out at 0.01.

As for A23G A55G A63G, the self-cleavage amounted to 1.39.

On to A23G A27U C40A A47G U122C, for which the self-cleavage stood at 1.32.

A23G A51G G58A: the self-cleavage was 0.7.

As to A24G A33G A56G, the self-cleavage amounted to 0.67.

Take A23G A63C U72A A117G: the self-cleavage came to 0.77.

Consider A23G U49C A89G, for which the self-cleavage turned out to be 1.22.

On to A23G C76G A111G A116U, for which the self-cleavage is 0.

Take A23G U57C A60U U72C A94G U103C: the self-cleavage stood at 0.05.

For the variant A23G A63G A95G U100G, the self-cleavage is 1.1.

On to A23G C46U A51U A55G U100A, for which the self-cleavage is 0.61.

With A23G A27U G73A C81U G83A, the self-cleavage is 0.32.

With A23G A36G A52G U57C A67G U103A, the self-cleavage came out at 1.

For the variant A23G A47G A118G, the self-cleavage came out at 0.41.

Turning to A24G A30G A56G, the self-cleavage was determined as 0.72.

Turning to A23U A63U A117G, the self-cleavage was found to be 1.15.

Regarding A23G A62G A68G A125G U132C, the self-cleavage came out at 0.24.

For A23G A55G A82U G123A, the self-cleavage was determined as 0.23.

Regarding A23G A56G U70C U100C U122C, the self-cleavage is 1.39.

Take A23G A82U U102C A118G: the self-cleavage is 0.12.

For A24G A36U A68G U87C, the self-cleavage stood at 1.17.

With A23G A27G A30U A94U U97C U122C A140G, the self-cleavage was 0.97.

With A23G C45U A69G A94U A95G C101U U108C, the self-cleavage turned out to be 0.01.

A23U A67U A90G A125G: the self-cleavage came to 0.29.

In the case of A23U A30U A33G A95G A114C A116G, the self-cleavage worked out at 0.01.

For A23G A55G U57C A98G, the self-cleavage was determined as 0.39.

On to A23G U70A A116G, for which the self-cleavage amounted to 0.81.

As for A23U A78U A89G, the self-cleavage came to 0.53.

A24G A33U U49C G58U: the self-cleavage came to 1.41.

Regarding A23G A36G U70C, the self-cleavage came out at 0.6.

In the case of A24G A47G A51G A90G, the self-cleavage amounted to 1.02.

With A24C U39C A95G U108C, the self-cleavage turned out to be 0.02.

A24G A51U A59C U120A U130C: the self-cleavage came to 0.54.

Regarding A23G A69G A78C A90U, the self-cleavage was 0.22.

As for A23G A51G U57A U108G A110G, the self-cleavage was found to be 0.02.

Regarding A23G A33G U43C A55G A59G C121U, the self-cleavage turned out to be 1.15.

On to A23G U38C A54G A94G U122C U127C, for which the self-cleavage was 0.54.

As to A23G U43C A60G, the self-cleavage was 0.22.

As for A23G U38C U139C, the self-cleavage was 0.98.

A23G A67G G79A: the self-cleavage turned out to be 0.22.

Regarding A23G A47G A52G, the self-cleavage was 0.75.

Take A23G G65U A117G: the self-cleavage amounted to 1.94.

For A23G A33G A86U, the self-cleavage amounted to 1.14.

With A23G U38C U49C A94G U120C U133C, the self-cleavage came out at 0.74.

Consider A23G A27G A62U A92G A94G A114U A118U, for which the self-cleavage worked out at 0.

For the variant A24G A27G U39C U131C, the self-cleavage was 0.76.

For A23U U37C U38C A67G A90G, the self-cleavage was determined as 0.9.

On to A23G G44A A126G, for which the self-cleavage was determined as 0.45.

Turning to A23G A59G A111G, the self-cleavage is 0.05.

Regarding A24C A89G A96G, the self-cleavage came out at 1.33.

Consider A23G A64G A89U U97C, for which the self-cleavage turned out to be 1.6.

A23G A27G U70G A135G G137U: the self-cleavage turned out to be 0.98.

For A23G U49C A96G, the self-cleavage is 2.

For the variant A24G A47G U70C, the self-cleavage was found to be 0.14.

A24C A54G A68G A82U U132C: the self-cleavage amounted to 0.1.

In the case of A23U A47U A82U, the self-cleavage amounted to 0.41.

As to A24G A52G A60G U132C, the self-cleavage turned out to be 0.69.

For A23U U100C A114G, the self-cleavage came out at 1.4.

As for A23G G28A G75A A92G, the self-cleavage worked out at 0.15.

As for A23G A56G A78U, the self-cleavage is 0.65.

Consider A23G A60G A90G, for which the self-cleavage came out at 0.45.

Turning to A23G A52G U122C, the self-cleavage came to 1.15.

As for A23G U43A A118G U127C, the self-cleavage turned out to be 0.17.

For the variant A23U U37C U39A, the self-cleavage came to 1.4.

As to A23G A94U U103A G104A U130C, the self-cleavage was found to be 0.02.

On to A24G A51U A92G A94G A95G, for which the self-cleavage is 1.21.

As to A23G U37C A54G U72C A82G, the self-cleavage was 0.16.

With A23G A36G A82G A96G A140G, the self-cleavage stood at 0.9.

With A24G A51G A59U A94G, the self-cleavage was found to be 1.57.
